Some of the results follow. Sequences were assembled here from the parent chain. Values near 0.05 are background.
B1: TEV protease; numbered along this chain (parent)
chain: MGESLFKGPRDYNPISSSICHLTNESDGHTTSLYGIGFGPFIITNKHLFRRNNGTLVVQSLHGVFKVKDTTTLQQHLVDGRDMIIIRMPKDFPPFPQKLKFREPQREERICLVTTNFQTKSMSSMVSDTSCTFPSGDGIFWKHWIQTKDGQCGSPLVSTRDGFIVGIHSASNFTNTNNYFTSVPKNFMELLTNQEAQQWVSGWRLNADSVLWGGHKVFMVKPEEPFQPVKEATQL

Variants of: B1
Experiment: raw area under fraction-flipped curve 0-4 h after induction (AUC4h, not background-subtracted), DNA-recorder readout of cleavage of the substrate (dimensionless); higher = more cleavage of the substrate by the protease variant
Details: temperature: 34 °C; time window: 0-4 h after rhamnose induction
Method: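 In vivo DNA recorder in E. coli TOP10(DE3) ΔrhaA at 34 °C. Each TEVp single-site mutant (parent TEVp 0) is paired with a single-site variant of the 7-mer TEVs (canonical ENLYFQ|S). The substrate sits between flexible linkers in a Bxb1-sfGFP-TEVs-SsrA fusion, so cleavage stabilises Bxb1 and speeds flipping of a recombination array, read by NGS. The value is the raw area under the fraction-flipped curve over 0-4 h after rhamnose induction (AUC4h), with ≥20 reads per time point. It is not background-subtracted; inactive controls average about 0.047.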
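Also: Bxb1 expression induced with 0.2% (w/v) L-rhamnose at OD600 near 0.5, cultures sampled hourly, flipped fraction per protease–substrate barcode pair counted by paired-end Illumina sequencing.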

| Variant | area with substrate HNLYFQS | area with substrate INLYFQS | area with substrate LNLYFQS | area with substrate MNLYFQS | area with substrate PNLYFQS | area with substrate VNLYFQS | area with substrate WNLYFQS | area with substrate KNLYFQS | area with substrate RNLYFQS | area with substrate YNLYFQS |
| --- | --- | --- | --- | --- | --- | --- | --- | --- | --- | --- |
| D128T | 0.0565 | 0.0603 | 0.0648 | 0.0646 | 0.0755 | 0.0883 | 0.0581 |  |  |  |
| K90A | 0.0626 |  | 0.0649 |  |  |  | 0.0654 | 0.0797 | 0.0577 | 0.0666 |
| S158E | 0.055 |  |  | 0.0574 |  |  |  |  |  |  |
| E3V | 0.0662 |  |  | 0.0716 |  |  | 0.0662 |  |  | 0.0731 |
| N206L | 0.066 |  |  |  |  |  |  |  |  |  |
| S201E | 0.0488 | 0.0765 | 0.0672 | 0.0639 | 0.0519 | 0.0749 | 0.0734 | 0.0534 |  |  |
| E195L | 0.0732 | 0.0539 | 0.0598 |  | 0.0436 |  | 0.0428 | 0.0545 |  |  |
| S171I | 0.0595 |  |  | 0.0481 | 0.065 |  | 0.0401 |  |  |  |
| S171K | 0.0606 |  |  |  |  |  |  |  |  |  |
| F6T | 0.0651 | 0.0564 |  |  |  |  | 0.0763 | 0.078 | 0.0724 |  |
| F6N | 0.0604 | 0.0653 | 0.0537 | 0.0735 |  |  | 0.0686 |  |  |  |
| N178Y | 0.0899 | 0.0975 |  | 0.082 |  |  |  | 0.0959 |  | 0.0799 |
| N178R | 0.0614 | 0.0807 |  |  | 0.0745 | 0.0567 | 0.0532 |  |  | 0.0734 |
| F173T | 0.0522 | 0.066 |  | 0.0684 | 0.0616 | 0.0572 | 0.0652 | 0.0406 |  |  |
| N175Q | 0.0631 |  |  | 0.0603 | 0.0609 |  | 0.055 |  |  | 0.0536 |
| D149P | 0.0628 |  | 0.0892 | 0.0451 |  |  | 0.0639 |  |  |  |
| Q118L | 0.0617 |  |  |  | 0.0671 |  |  |  |  |  |
| Q118W | 0.0564 |  | 0.0638 |  |  |  | 0.0662 |  |  | 0.0668 |
| V57I | 0.0702 |  | 0.0542 | 0.0521 |  |  |  |  |  |  |
| C131E | 0.0528 |  |  |  |  |  |  |  |  |  |
| C131K | 0.0822 |  |  |  | 0.0277 |  | 0.0498 |  |  |  |
| C131F | 0.0765 |  |  |  | 0.0714 |  |  |  |  |  |
| N172R | 0.0598 | 0.0706 |  |  | 0.063 |  | 0.0771 |  |  | 0.0527 |
| Q194W | 0.0414 | 0.0476 | 0.0551 |  |  |  | 0.0454 |  |  |  |
| L61T | 0.0633 |  | 0.079 |  | 0.0544 | 0.0702 |  |  |  | 0.0508 |
| G138A | 0.0573 |  |  |  |  |  |  |  |  |  |
| T181V | 0.055 | 0.0647 | 0.0695 |  |  |  | 0.0685 | 0.0693 |  | 0.0629 |

| Variant | area with substrate HNLYFQS | area with substrate INLYFQS | area with substrate LNLYFQS | area with substrate MNLYFQS | area with substrate PNLYFQS | area with substrate VNLYFQS | area with substrate WNLYFQS | area with substrate KNLYFQS | area with substrate RNLYFQS | area with substrate YNLYFQS |
| --- | --- | --- | --- | --- | --- | --- | --- | --- | --- | --- |
| T181H | 0.0639 | 0.0432 |  | 0.0604 | 0.059 | 0.066 |  |  |  |  |
| H215K | 0.0555 | 0.0582 | 0.0625 | 0.039 |  |  | 0.0553 | 0.0627 |  | 0.0531 |
| L5H | 0.0634 |  | 0.0636 |  | 0.0737 | 0.0701 | 0.0659 |  |  | 0.0327 |
| G214W | 0.066 |  | 0.0607 | 0.0425 |  |  |  |  |  |  |
| T70F | 0.0555 |  | 0.0602 |  | 0.0607 | 0.0549 | 0.0543 | 0.0639 | 0.0482 |  |
| D161G | 0.0554 | 0.0547 | 0.0627 |  | 0.0755 | 0.0616 | 0.0548 | 0.0779 |  | 0.0447 |
| W203D | 0.0436 | 0.0736 |  |  |  |  |  |  |  | 0.0627 |
| E103I | 0.0632 | 0.0644 | 0.0696 | 0.0615 | 0.0622 |  | 0.0606 | 0.0418 |  | 0.0327 |
| I110R | 0.0575 | 0.0437 |  | 0.0155 |  | 0.0577 | 0.0417 | 0.0546 |  | 0.0514 |
| G213C | 0.062 | 0.0549 | 0.0567 |  | 0.0537 | 0.0735 |  | 0.0652 | 0.0641 | 0.0252 |
| G213T | 0.0605 | 0.0645 |  |  | 0.0604 | 0.062 | 0.0637 | 0.0595 | 0.0594 |  |
| F65Q | 0.061 | 0.0683 |  |  | 0.0603 |  | 0.0565 |  |  | 0.0513 |
| Q59N | 0.0589 |  | 0.0897 |  | 0.0702 |  | 0.0655 |  |  | 0.0559 |
| Q59R | 0.068 |  | 0.0629 | 0.0598 | 0.0543 | 0.0533 | 0.0609 | 0.0697 |  |  |
| S182F | 0.0396 | 0.0486 | 0.0669 | 0.0499 | 0.0565 |  | 0.0467 |  |  |  |
| S182C | 0.0551 |  |  |  | 0.0646 |  | 0.0532 |  |  |  |
| K7Y | 0.0707 | 0.0613 | 0.0776 |  |  |  |  |  |  | 0.0543 |
| F163K | 0.0604 |  |  |  |  |  |  |  |  |  |
| F163M | 0.0605 |  | 0.0554 |  |  |  | 0.0343 |  |  |  |
| F163D | 0.0612 |  |  | 0.0547 |  |  |  |  |  | 0.0605 |
| P228R | 0.0709 |  | 0.0849 |  | 0.0699 | 0.0721 | 0.0532 |  |  | 0.0685 |
| P228Y | 0.0614 | 0.0603 | 0.0556 | 0.0666 |  |  | 0.0962 | 0.0655 |  |  |
| P228S | 0.0695 | 0.071 | 0.0689 |  |  |  |  |  |  |  |
| R50Y | 0.0659 |  | 0.0554 |  | 0.0713 |  | 0.0369 |  |  | 0.0664 |
| R50W | 0.0932 |  | 0.0675 |  |  | 0.0885 |  |  | 0.0725 |  |
| D137Q | 0.0539 |  | 0.0633 | 0.0656 |  |  | 0.0663 | 0.0523 |  |  |

Same assay, conditions: temperature: 34 °C; time window: 0-4 h after rhamnose induction

| Variant | area with substrate SNLYFQS | area with substrate TNLYFQS | area with substrate NNLYFQS | area with substrate QNLYFQS |
| --- | --- | --- | --- | --- |
| S158E | 0.0385 |  |  |  |
| E3V |  | 0.0721 |  |  |
| S201E |  |  | 0.095 | 0.0638 |
| E195L | 0.0695 |  |  | 0.0731 |
| S171I |  |  | 0.0487 |  |
| S171K | 0.0786 |  |  |  |
| F6T |  |  | 0.0717 |  |
| F6N |  |  | 0.0528 |  |
| N178Y |  | 0.0791 |  |  |
| N178R | 0.0761 | 0.0585 |  |  |
| F173T |  | 0.0575 | 0.059 | 0.0644 |
| N175Q |  | 0.0537 |  |  |
| D149P |  | 0.0716 |  |  |
| Q118W | 0.0671 | 0.0592 | 0.0689 |  |
| V57I |  | 0.0751 |  |  |
| C131K | 0.074 | 0.068 |  |  |
| N172R |  | 0.0617 |  |  |
| Q194W |  |  | 0.0641 |  |
| L61T | 0.0682 |  | 0.0743 |  |
| T181V |  | 0.0578 | 0.0646 |  |

| Variant | area with substrate SNLYFQS | area with substrate TNLYFQS | area with substrate NNLYFQS | area with substrate QNLYFQS |
| --- | --- | --- | --- | --- |
| T181H |  | 0.0529 |  |  |
| H215K | 0.0616 | 0.0712 |  |  |
| L5H |  | 0.0659 |  |  |
| D161G |  | 0.0758 |  |  |
| W203D |  |  | 0.0691 |  |
| E103I |  | 0.0659 |  |  |
| I110R | 0.0504 |  | 0.0419 |  |
| G213T |  | 0.0483 | 0.063 |  |
| Q59N |  | 0.0728 | 0.072 | 0.0559 |
| S182F | 0.0574 | 0.0431 |  |  |
| S182C |  | 0.0668 |  |  |
| F163K |  | 0.0697 |  |  |
| F163D | 0.0253 | 0.0637 |  |  |
| P228R |  | 0.0429 |  | 0.0702 |
| P228Y | 0.0572 |  |  |  |
| P228S | 0.0625 |  |  |  |
| R50Y | 0.0918 | 0.0707 | 0.0486 |  |
| R50W | 0.0858 |  |  |  |
| D137Q | 0.0627 | 0.0816 | 0.0511 |  |
